From PubChem BioAssay AID624296 (National Center for Advancing Translational Sciences (NCATS), 2012)
The whole screen tested about 350,000 compounds, of which about 9,900 (2.8%) were called active. Inconclusive means that the source gave no clear call. Such entries were picked first, then a sample of the others. Calls follow the shape of the dose curve; as a rule, active = well fitted activation curve with a large enough effect; inconclusive = small, poorly fitted or top-dose-only effect; inactive = no such curve, though single readings can be large or run the other way. Potencies of inconclusive entries are left out as doubtful fits.
Potency is read from the fitted curve at half-maximal effect; tags tell the direction and shape of the fitted curve.

Assay: A quantitative high throughput screen for small molecules that induce DNA re-replication in MCF 10a normal breast cells. Also: nearly all actives have a fitted effect of over 50% in size. As to activity, positive = re-replication: % of control where 0% means no effect.
Settings: MCF 10A DNA re-replication, Hoechst nuclear intensity, 48 h; activity, positive = re-replication: at 46.1 µM (top of the series)
In the case of CCOc1ccc(-c2csc(Cn3c(CN4CCN(C)CC4)nc4ccccc4c3=O)n2)cc1, the Potency is reported as inconclusive [activator, single point].
With COc1ccc(-c2cc(C(F)(F)F)n3nc(C(=O)N4CCCCC4)cc3n2)cc1OC the “activity, positive = re-replication” value was inactive: -4.45%.
For CCOC(=O)c1cc2c(ccn2C)n1CC(=O)N(Cc1ccccc1)c1ccccc1, the Potency was inconclusive [activator, partial curve].
For COc1ccc(/C=C/CN2CCCC(CO)(Cc3cccc(Cl)c3)C2)cc1 (centres undefined), the Potency was inconclusive [activator, single point].
In the case of O=C(NC(=S)NCC1CCCO1)c1ccc([N+](=O)[O-])cc1 (centres undefined), the “activity, positive = re-replication” value is reported as inactive: -6.47%.
For Cc1oc(-c2ccccc2Cl)nc1Cn1cccc1C1=NC(c2ccccc2)CO1 (centres undefined), the Potency was inconclusive [activator, partial curve, poor fit].
In the case of CCN(CC)C(=O)Cn1cc(C(=O)C(=O)N2CCN(c3ccc([N+](=O)[O-])cc3)CC2)c2ccccc21, the “activity, positive = re-replication” value is reported as inactive: 22.2%.
With CCCCn1nc(NC(=O)c2cccs2)c2cc3cc(OC)ccc3nc21 the Potency was inconclusive [activator, single point].
For Cn1c(C(=O)NC2CCCCCC2)cc2c(=O)n(C)c3ccccc3c21, the “activity, positive = re-replication” value was inactive: 1.57%.
For COc1ccc(/C=C/C(=O)C(C(N)=O)=C2SCCS2)cc1, the “activity, positive = re-replication” value was inactive: 14.8%.
In the case of Fc1ccc2c(c1)C(c1cccnc1)=NNC(c1cccs1)=N2, the Potency is reported as inconclusive [activator, single point].
With Cc1cc(-c2ccc(C(C)C)c(S(=O)(=O)NCc3ccco3)c2)on1 the Potency was inconclusive [activator, single point].
For O=C(O)CCCC(=O)N1CC(=O)Nc2ccccc21, the “activity, positive = re-replication” value was inactive: -5.29%.
For CN(C)C(=O)c1c(NC(=O)c2ccco2)sc2c1CCCCC2, the Potency was inconclusive [activator, partial curve, poor fit].
For O=c1oc2cc(Br)ccc2n1Cc1ccccc1, the Potency was inconclusive [activator, single point].
With COc1ccccc1NS(=O)(=O)c1ccc2oc(N)nc2c1 the Potency was inconclusive [activator, single point].
For O=S(=O)(N/N=C1/CC(c2ccccc2)Oc2ccccc21)c1ccc(Br)cc1 (centres undefined), the Potency was active: 10.3 µM.
For O=S1(=O)c2ccc(Br)cc2N2CCC[C@@H]2CN1C1CC1, the Potency was inconclusive [activator, full curve, poor fit].
With Cc1c(OCC(=O)NCCCN2CCOCC2)ccc2c(-c3ccccc3)cc(=O)oc12 the Potency was inconclusive [activator, partial curve, poor fit].
